Out of some 52,000 compounds screened, about 4,300 (8.3%) were called active. Cut-off read from the data, not from the text of the source: active = survival mostly below about 52% (no sharp cut-off); inactive = mostly above about 56%. Some of the results follow.

This test deals with DeltatarO mutant. The test is described as follows: growth inhibition of S. aureus wild type versus tarO mutant, primary screen, teichoic acid synthesis inhibitors, RN4220, OD600 (AID 463173). Conditions: OD600, 18 h, hits give low values, screened at 18.75 µg/mL (by protocol).
Regarding `CCC(=O)N1CCc2cc(Br)cc(S(=O)(=O)N3CCC(C(=O)NCCCOC(C)C)CC3)c21`, the survival was inactive: 133%.

As for `COC(=O)c1ccccc1NC(=O)c1ccc(COc2ccccc2Cl)o1`, the survival was inactive: 63%.

Take `COc1ccc(C2CC(=O)c3cc(-c4nc(-c5cccc(Cl)c5)cs4)c(=O)[nH]c3C2)cc1OC` (stereo not given): the survival is inactive: 142%.

Regarding `COc1ccccc1CNC(=O)C1CCCN(c2nc3ccccc3n3cccc23)C1` (stereo not given), the survival was inactive: 53%.

Consider `COc1ccc(Cl)cc1C(=O)Nc1sc2c(c1C(=O)OC(C)C)CCCC2`, for which the survival is inactive: 61%.

Consider `O=C(C1CC1)N1CCc2cc(Br)cc(S(=O)(=O)N3CCN(c4cccc(C(F)(F)F)c4)CC3)c21`, for which the survival was inactive: 64%.

Regarding `O=C(Nc1ccccc1)NC1(C(=O)Nc2ccc(-n3cnnn3)cc2)CCCCC1`, the survival is inactive: 98%.

For `CC(=O)N1CCc2cc(Br)cc(S(=O)(=O)N3CCN(c4cccc(C(F)(F)F)c4)CC3)c21`, the survival is inactive: 150%.

In the case of `COc1ccccc1NC(=O)C1=C(C)Nc2c(C(=O)Nc3ccc(F)cc3)cnn2C1c1cccc([N+](=O)[O-])c1` (stereo not given), the survival is inactive: 100%.

Turning to `CCCCN(C)c1nc2c(S(=O)(=O)c3ccc(CC)cc3)nnn2c2ccc(Cl)cc12`, the survival was inactive: 76%.

For `COc1ccc(NC(=O)Cn2c(=O)n(-c3ccc(OC)c(OC)c3)c(=O)c3ccccc32)cc1`, the survival was inactive: 93%.

Regarding `COc1cc(C(CC(=O)NCc2ccc(F)cc2)N2Cc3ccccc3C2=O)cc(OC)c1OC` (stereo not given), the survival is inactive: 73%.

Turning to `CCC1CCCCN1C(=O)Cn1c(=O)n(CCCCCC(=O)NCc2ccccc2)c(=O)c2sccc21` (stereo not given), the survival was inactive: 69%.

`CSc1ncc(Cl)c(C(=O)Nc2ccc(NC(C)=O)cc2)n1`: the survival was inactive: 82%.

For the compound `COc1ccc(Cl)cc1NC(=O)c1c(NCc2ccc(C)o2)sc2c1CCCCC2`, the survival is inactive: 85%.

In the case of `COc1cccc(NC(=O)c2ccc3nc(CCc4ccccc4)oc3c2)c1`, the survival was inactive: 107%.

On to `CCCn1c2ccccc2c2cnn(CC(=O)N(C)c3ccc(F)cc3)c(=O)c21`, for which the survival is inactive: 134%.

For the compound `COc1cccc(CSc2nc3ccccc3c3nc(CCn4c(C)nc5ccccc54)nn23)c1`, the survival is inactive: 79%.

As for `CCOC(=O)c1cnn(-c2ccc(C(=O)Nc3cc(OC)c(OC)c(OC)c3)cc2)c1N`, the survival is inactive: 75%.

As to `CC1CCN(S(=O)(=O)c2cn(CC(=O)Nc3cccc(C(F)(F)F)c3)c(=O)c3ccccc23)CC1`, the survival was inactive: 65%.

With `O=C(CSc1ccccc1)N1CCc2c([nH]c3ccccc23)C1c1ccc(F)cc1` (stereo not given), the survival was inactive: 76%.

As to `Nc1c(-c2nc(-c3cccs3)no2)nnn1-c1ccc(Cl)cc1`, the survival is inactive: 66%.

With `COc1cccc(C(=O)Nc2cccc(C(=O)OCc3cc(=O)n4nc(C5CC5)sc4n3)c2)c1`, the survival was inactive: 89%.

In the case of `CCn1c(C(=O)NCCc2ccc(OC)c(OC)c2)cc2sc(Cl)cc21`, the survival was active: 32%.

Take `COC(=O)c1cc2oc3ccccc3c2n1Cc1nc(-c2ccc(OC)cc2)oc1C`: the survival was inactive: 77%.

Turning to `CCCCn1c(SCC(=O)N2CCCCC2)nc2ccccc2c1=O`, the survival was inactive: 90%.

In the case of `COc1ccc(SCc2cc(=O)c3cc(Cl)ccc3[nH]2)cc1`, the survival was inactive: 70%.

Regarding `c1ccc(CNc2nc3c(-c4ccccc4)nnn3c3ccccc23)cc1`, the survival was inactive: 75%.

Consider `O=C(Cc1ccc(Cl)cc1)Nc1ccc2nn(-c3ccc(Cl)cc3)nc2c1`, for which the survival is inactive: 83%.

In the case of `O=C(NCc1ccc2c(c1)CCN2C(=O)c1ccc(F)cc1)c1cc2ccccc2[nH]1`, the survival is inactive: 97%.

As for `CCn1c(COc2cccc(C)c2)nnc1SCC(=O)NC(C)(C)C`, the survival is inactive: 102%.

Consider `COc1ccccc1CNC(=O)CCC(=O)N1CC2CCCN2c2ccccc21` (stereo not given), for which the survival was inactive: 99%.

In the case of `CCOc1ccccc1NC(=O)C(=O)NCCc1sc(-c2cccc(F)c2)nc1C`, the survival was inactive: 90%.

Regarding `CCc1ccc(NCc2cc3cc4c(cc3n(CC(=O)Nc3ccc(C)cc3)c2=O)OCO4)cc1`, the survival is inactive: 89%.

Regarding `COc1ccc(-c2cc(C(F)(F)F)nc(S(=O)(=O)CCCC(=O)Nc3cccc(O)c3)n2)cc1OC`, the survival is inactive: 76%.

Consider `CCC(=O)Oc1ccc(/C=C(\C#N)c2nc3ccccc3[nH]2)cc1OC`, for which the survival was inactive: 47%.

Turning to `CCOc1ccc(NC(=O)NCc2c(-n3cccc3)sc3c2CCCC3)cc1`, the survival was inactive: 87%.

As for `CSc1nc(-c2ccccc2F)c(C#N)c(=O)n1C`, the survival was inactive: 100%.

As for `CCOc1ccc(NC(=O)C2CCCN(S(=O)(=O)c3cccc4nonc34)C2)cc1` (stereo not given), the survival was inactive: 86%.

Consider `Cc1ccc(Nc2c(-c3cccs3)nc3nc(C)cc(C)n23)cc1`, for which the survival is active: 15%.

For `CC(=O)c1ccc(NC(=O)CSc2nnc3ccc(-c4ccc(Cl)cc4)nn23)cc1`, the survival was inactive: 83%.

For `CCc1ccccc1N1C(=O)N(Cc2ccc(C#N)cc2)c2ccccc2S1(=O)=O`, the survival is inactive: 120%.

Consider `CC(C)Sc1oc(-c2cccs2)nc1S(=O)(=O)c1ccc(Cl)cc1`, for which the survival is inactive: 66%.

With `CCOc1ccc(OCC)c(NS(=O)(=O)c2cc(-c3cc(C)no3)ccc2C)c1`, the survival was inactive: 91%.

Regarding `Cc1ccc(CNC(=O)c2ccc(Cn3c(=O)c4ccccc4n(CC(=O)Nc4ccc(C)cc4C)c3=O)cc2)cc1`, the survival is inactive: 79%.

As for `CCOc1ccc(S(=O)(=O)NCCc2sc3nc(-c4ccc(F)cc4)nn3c2C)cc1`, the survival is inactive: 67%.

Regarding `Cc1nc(C)c(C(=O)Nc2ccccc2)s1`, the survival is inactive: 70%.

Take `CCn1c2ccccc2c2cc(CN3CCN(Cc4ccccc4F)CC3)ccc21`: the survival was active: 7%.

As to `CCOc1ccc(CCNC(=O)c2cn(CC)c3ccc(S(=O)(=O)N4CCc5ccccc5C4)cc3c2=O)cc1OCC`, the survival is inactive: 72%.

On to `Cc1ccc(C)c(Nc2nnc(-n3nc(C)cc3C)c3ccccc23)c1`, for which the survival was inactive: 82%.

In the case of `O=C(Nc1cccc(F)c1)c1ccc2snnc2c1`, the survival is inactive: 83%.

As to `CCN(c1ccccc1)S(=O)(=O)c1nnc(NC(=O)c2cccs2)s1`, the survival is active: 28%.

Consider `Cc1ccc(Cl)cc1-n1ncc2c(NC3CCCCCC3)ncnc21`, for which the survival was inactive: 130%.

On to `Cc1ccc(C(=O)N2CCN(c3ncnc4c3cnn4-c3ccccc3)CC2)cc1`, for which the survival is inactive: 63%.

As to `COc1cc(C(=O)Nc2ccc3nc(SCc4ccc(C)cc4)sc3c2)cc(OC)c1OC`, the survival is inactive: 98%.
